# Reference: the supplement of paper PMC8728848
# The list shows a part of the results.
# B1: TLEC1 (Arabidopsis thaliana), Q9C5Q9 (protein)
# chain: MSGASSVSSICSSNVSLIPTGPQVFINFRGKDLRKGFMSFLKPALKKEKINVFIDEQEERGKYLISLFDTIGESKIALVIFSEGYCESHWCMDELVKIKEYMDQNRLIIIPIFYRLDLDVVKDLTGKFGDNFWDLVDKYQPEPKKLHKWTEALFSVCELFSLILPKHSDISDRDFVKSIVKAVKKVQKNFFQRRNGEIEYQDFSVPACKLTITMHESPNEEAVQVTVLNEFYQMKNQSPVPSYEFKFWVDLTRPKGNVFMIDARDLSIAWSEDSNHWTWLPLPNQNSNESVMEIAFLKSASWLDVAGKFDTRYLTPRTRYEVVFVVKLEYTFEWETLVKLKLDLPNTWEKPQEQSVDMFDYISDQWLDIPVGEFTTSKKNVGEISFAMYEHECQLWKSGLFVKGVTIRPKY
# Legend:
# Assay in all cases: glycan array binding signal (z-score within array); higher = stronger binding
# Conditions in all cases: glycan notation: IUPAC condensed, linker removed
# Gal6S(b1-4)Glc6S = target: Gal6S(b1-4)Glc6S
# How it was run: (§1)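 Arrays were curated from the Consortium for Functional Glycomics database, 3228 in total, and kept only where the protein sequence was available. Binding is expressed as a within-array Z-score. This score was averaged across arrays of the same protein sequence at different concentrations or buffers and across linkers, and negative values can be read as non-binding.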
# Gal6S(b1-4)GlcNAc = target: Gal6S(b1-4)GlcNAc
# How it was run: as §1
# GalNAc(a1-3)Gal = target: GalNAc(a1-3)Gal
# How it was run: as §1
# GalNAc(a1-3)GalNAc = target: GalNAc(a1-3)GalNAc
# How it was run: as §1
# [1] = target: GalNAc(b1-3)Gal(a1-4)Gal(b1-4)GlcNAc
# How it was run: as §1
# GalNAc(b1-4)GlcNAc = target: GalNAc(b1-4)GlcNAc
# How it was run: as §1
# Glc(a1-4)Glc = target: Glc(a1-4)Glc
# How it was run: as §1
# Glc(a1-6)Glc(a1-6)Glc = target: Glc(a1-6)Glc(a1-6)Glc
# How it was run: as §1
# Glc(b1-4)Glc = target: Glc(b1-4)Glc
# How it was run: as §1
# Glc(b1-6)Glc = target: Glc(b1-6)Glc
# How it was run: as §1
# GlcA(b1-3)Gal = target: GlcA(b1-3)Gal
# How it was run: as §1
# GlcA(b1-6)Gal = target: GlcA(b1-6)Gal
# How it was run: as §1
# [2] = target: GlcNAc(a1-3)Gal(b1-4)GlcNAc
# How it was run: as §1
# [3] = target: GlcNAc(a1-6)Gal(b1-4)GlcNAc
# How it was run: as §1
# [4] = target: GlcNAc(b1-2)Gal(b1-3)GlcNAc
# How it was run: as §1
# [5] = target: GlcNAc(b1-2)Man(a1-3)[GlcNAc(b1-2)Man(a1-6)]Man(b1-4)GlcNAc(b1-4)GlcNAc
# How it was run: as §1
# GlcNAc(b1-3)Gal = target: GlcNAc(b1-3)Gal
# How it was run: as §1
# [6] = target: GlcNAc(b1-3)Gal(b1-3)GalNAc
# How it was run: as §1
# GlcNAc(b1-3)Gal(b1-4)Glc = target: GlcNAc(b1-3)Gal(b1-4)Glc
# How it was run: as §1
# [7] = target: GlcNAc(b1-3)Gal(b1-4)GlcNAc
# How it was run: as §1
# [8] = target: GlcNAc(b1-3)Gal(b1-4)GlcNAc(b1-3)Gal(b1-4)GlcNAc
# How it was run: as §1
# GlcNAc(b1-3)GalNAc = target: GlcNAc(b1-3)GalNAc
# How it was run: as §1
# [9] = target: GlcNAc(b1-3)[GlcNAc(b1-4)][GlcNAc(b1-6)]GlcNAc
# How it was run: as §1
# [10] = target: GlcNAc(b1-3)[GlcNAc(b1-6)]Gal(b1-4)GlcNAc
# How it was run: as §1
# [11] = target: GlcNAc(b1-3)[GlcNAc(b1-6)]GlcNAc
# How it was run: as §1
# [12] = target: GlcNAc(b1-4)Gal(b1-4)GlcNAc
# How it was run: as §1
# [13] = target: GlcNAc(b1-4)GlcNAc(b1-4)GlcNAc
# How it was run: as §1
# [14] = target: GlcNAc(b1-4)GlcNAc(b1-4)GlcNAc(b1-4)GlcNAc(b1-4)GlcNAc
# How it was run: as §1
# [15] = target: GlcNAc(b1-4)GlcNAc(b1-4)GlcNAc(b1-4)GlcNAc(b1-4)GlcNAc(b1-4)GlcNAc
# How it was run: as §1
# [16] = target: GlcNAc(b1-4)[GlcNAc(b1-6)]GalNAc
# How it was run: as §1
# [17] = target: GlcNAc(b1-6)Gal(b1-4)GlcNAc
# How it was run: as §1
# GlcNAc(b1-6)GalNAc = target: GlcNAc(b1-6)GalNAc
# How it was run: as §1
# Kdn(a2-3)Gal(b1-3)GlcNAc = target: Kdn(a2-3)Gal(b1-3)GlcNAc
# How it was run: as §1
# Kdn(a2-3)Gal(b1-4)GlcNAc = target: Kdn(a2-3)Gal(b1-4)GlcNAc
# How it was run: as §1
# [18] = target: Man(a1-2)Man(a1-2)Man(a1-3)Man
# How it was run: as §1
# [19] = target: Man(a1-2)Man(a1-2)Man(a1-3)[Man(a1-2)Man(a1-3)[Man(a1-2)Man(a1-6)]Man(a1-6)]Man(b1-4)GlcNAc(b1-4)GlcNAc
# How it was run: as §1
# [20] = target: Man(a1-2)Man(a1-2)Man(a1-3)[Man(a1-2)Man(a1-6)[Man(a1-3)]Man(a1-6)]Man(b1-4)GlcNAc(b1-4)GlcNAc
# How it was run: as §1
binder,measurement,setting,value
B1,glycan array binding signal (z-score),Gal6S(b1-4)Glc6S,1.65
same,glycan array binding signal (z-score),Gal6S(b1-4)GlcNAc,-0.109
same,glycan array binding signal (z-score),GalNAc(a1-3)Gal,-0.288
same,glycan array binding signal (z-score),GalNAc(a1-3)GalNAc,0.049
same,glycan array binding signal (z-score),[1],-0.304
same,glycan array binding signal (z-score),GalNAc(b1-4)GlcNAc,-0.229
same,glycan array binding signal (z-score),Glc(a1-4)Glc,-0.148
same,glycan array binding signal (z-score),Glc(a1-6)Glc(a1-6)Glc,-0.065
same,glycan array binding signal (z-score),Glc(b1-4)Glc,-0.219
same,glycan array binding signal (z-score),Glc(b1-6)Glc,0.397
same,glycan array binding signal (z-score),GlcA(b1-3)Gal,-0.225
same,glycan array binding signal (z-score),GlcA(b1-6)Gal,-0.252
same,glycan array binding signal (z-score),[2],0.153
same,glycan array binding signal (z-score),[3],-0.144
same,glycan array binding signal (z-score),[4],-0.386
same,glycan array binding signal (z-score),[5],-0.189
same,glycan array binding signal (z-score),GlcNAc(b1-3)Gal,-0.177
same,glycan array binding signal (z-score),[6],-0.296
same,glycan array binding signal (z-score),GlcNAc(b1-3)Gal(b1-4)Glc,-0.246
same,glycan array binding signal (z-score),[7],-0.275
same,glycan array binding signal (z-score),[8],-0.33
same,glycan array binding signal (z-score),GlcNAc(b1-3)GalNAc,0.039
same,glycan array binding signal (z-score),[9],0.419
same,glycan array binding signal (z-score),[10],-0.325
same,glycan array binding signal (z-score),[11],0.142
same,glycan array binding signal (z-score),[12],0.103
same,glycan array binding signal (z-score),[13],-0.42
same,glycan array binding signal (z-score),[14],-0.406
same,glycan array binding signal (z-score),[15],-0.437
same,glycan array binding signal (z-score),[16],0.468
same,glycan array binding signal (z-score),[17],-0.269
same,glycan array binding signal (z-score),GlcNAc(b1-6)GalNAc,-0.327
same,glycan array binding signal (z-score),Kdn(a2-3)Gal(b1-3)GlcNAc,-0.394
same,glycan array binding signal (z-score),Kdn(a2-3)Gal(b1-4)GlcNAc,-0.399
same,glycan array binding signal (z-score),[18],-0.005
same,glycan array binding signal (z-score),[19],-0.515
same,glycan array binding signal (z-score),[20],-0.509
